According to PubChem BioAssay AID504706 (National Center for Advancing Translational Sciences (NCATS), 2011):
Screen size: about 320,000 compounds; about 200 (0.062%) were called active. The inconclusive results got no clear call from the source; some entries with a clear call stand among them for comparison. The call rests on the fitted dose curve; in most records, active means well fitted activation curve with a large enough effect; inconclusive means small, poorly fitted or top-dose-only effect; inactive means no such curve, though single readings can be large or run the other way. No potency is given beside an inconclusive call; the fits are too rough.

assay: qHTS assay for re-activators of p53 using a Luc reporter; settings: H1299 p53-A138V BP100-luciferase reporter, luminescence, 24 h; series mostly up to 92.2 µM; further: nearly all actives have a fitted effect of over 45% in size
How it was run: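 p53-null H1299 cells stably carrying temperature-sensitive p53-A138V and a BP100-luciferase reporter were pinned with compounds (4-point, 1:5 series) and held 24 hrs at 37 deg C. Luminescence was read 10 min after detection reagent.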
Potency means the concentration at half of the fitted maximal effect; tags describe the fitted curve by direction and shape.

With `S=C(NCCc1ccccc1)Nc1ccccn1` as the molecule, how does the Potency read?
The Potency was inconclusive [activator, partial curve, poor fit].

For `COc1ccc(/C=C/C(=O)Nc2ccc(-n3nncc3-c3ccc(OC)c(OC)c3)cc2)cc1OC`, which Potency is on record?
The Potency was “inactive”.

For `O=Cc1cn(-c2ccccc2)nc1-c1ccc2c(c1)OCCO2`, which Potency is on record?
The Potency was inconclusive [activator, full curve, poor fit].

Which Potency does the source give for `O=C(/C=C\NCC(=O)c1ccccc1)c1ccc2ccccc2c1` here?
Its Potency is inconclusive [activator, single point].

For `Cc1ccc(C(O)C(=O)c2ccco2)cc1` (centres undefined), which Potency is on record?
Its Potency is “inactive”.

With `O=C(NCc1ccco1)c1cc(-c2cccc(Cl)c2)on1` as the molecule, how does the Potency read?
Its Potency is inconclusive [activator, single point].

For `Cc1ccc(C=C2C(=O)c3ccccc3C2=O)o1`, which Potency is on record?
The Potency was inconclusive [activator, full curve].

With `O=C(Nc1nncs1)c1ccc(N2C(=O)C3C4C=CC(C4)C3C2=O)cc1` (centres undefined) as the molecule, how does the Potency read?
Its Potency is inconclusive [activator, single point].

For `Cc1ccc(NC(=O)CN(C)S(=O)(=O)c2ccc(Cl)s2)c(O)c1`, which Potency is on record?
Its Potency is inconclusive [activator, partial curve, poor fit].

With `CC(=O)N1CCN(C(=O)c2ccc(-c3ccccc3Cl)o2)CC1` as the molecule, how does the Potency read?
The Potency was inconclusive [activator, partial curve, poor fit].

With `Cc1cc(C(=O)NNC(=S)Nc2ccccc2C)cs1` as the molecule, how does the Potency read?
Its Potency is inconclusive [activator, partial curve, poor fit].

With `CSc1nsc(N/N=C/c2ccc3c(c2)OCO3)c1C#N` as the molecule, how does the Potency read?
Its Potency is inconclusive [activator, partial curve, poor fit].

Which Potency does the source give for `O=C(Cc1ccccc1)NC(=S)Nc1ccc2oc(-c3ccccc3)nc2c1` here?
Its Potency is inconclusive [activator, full curve, poor fit].

Which Potency does the source give for `c1coc(-c2nnc(-c3ccc4c(c3)OCO4)o2)c1` here?
The Potency was inconclusive [activator, partial curve, poor fit].

Which Potency does the source give for `C[C@H](NC(=O)OCc1ccccc1)C(=O)NNC(=O)[C@H](Cc1ccccc1)NC(=O)OC(C)(C)C` here?
The Potency was “inactive”.

For `CNC(=O)c1ccsc1NC(=O)c1ccc(S(=O)(=O)N2CCCc3ccccc32)cc1`, which Potency is on record?
The Potency was “inactive”.

For `CCc1ccc(C(=O)CN2CCSC2=N)cc1`, which Potency is on record?
Its Potency is inconclusive [activator, partial curve, poor fit].

For `CCNC(=S)NNC(=O)c1csc(C(C)C)c1`, which Potency is on record?
The Potency was inconclusive [activator, full curve, poor fit].

Which Potency does the source give for `CCOC(=O)N1CCN(Cc2nc(N)nc(Nc3ccc(OCC)cc3)n2)CC1` here?
The Potency was “inactive”.

For `N/C(=N\OC(=O)COc1ccc(Cl)cc1)c1cccnc1`, which Potency is on record?
The Potency was inconclusive [activator, partial curve, poor fit].

With `CCC(=O)N(CCCN(C)C)c1nc(-c2cc(OC)ccc2OC)cs1` as the molecule, how does the Potency read?
The Potency was inconclusive [activator, partial curve, poor fit].

With `Cc1cc(C)cc(C(=O)OCC(=O)Nc2cccc(S(=O)(=O)NC3=NCCCCC3)c2)c1` as the molecule, how does the Potency read?
Its Potency is “inactive”.

For `O=C(N/N=C/c1ccc(Cl)cc1)c1cc2c(s1)-c1ccccc1CC2`, which Potency is on record?
The Potency was “inactive”.

Which Potency does the source give for `CC(=O)NNc1ncnc2c1cnn2-c1ccc(C)c(Cl)c1` here?
Its Potency is “inactive”.

For `CCOC(=O)C1CCN(C(=O)CCc2nc3ccccc3[nH]2)CC1`, which Potency is on record?
Its Potency is “inactive”.

For `COc1ccc(-n2cc(-c3ccccc3)c3c(N4CCN(CCO)CC4)ncnc32)cc1`, which Potency is on record?
Its Potency is inconclusive [activator, single point].

For `O=C(NC(=S)Nc1cccc(O)c1)c1ccco1`, which Potency is on record?
The Potency was inconclusive [activator, partial curve, poor fit].

For `CCC(NC(=O)c1ccccc1NC(=O)c1ccc(OC)cc1)C(=O)N1CCCC1` (centres undefined), which Potency is on record?
Its Potency is inconclusive [activator, partial curve, poor fit].

For `Cc1nc(N2N=C(c3ccc(Cl)cc3)CC2c2ccco2)sc1C(=O)N(C)C` (centres undefined), which Potency is on record?
Its Potency is “inactive”.

For `COc1ccc(C(=O)NCCc2ccccc2)cc1OC`, which Potency is on record?
Its Potency is inconclusive [activator, single point].

For `O=C(O)/C=C\C(=O)Nc1ccccc1C#Cc1ccc(Br)cc1`, which Potency is on record?
Its Potency is inconclusive [activator, full curve, poor fit].

For `O=C(NCCc1ccccc1)c1cnc2ccccc2n1`, which Potency is on record?
Its Potency is inconclusive [activator, full curve, poor fit].

Which Potency does the source give for `O=C(NCc1cc(Br)cc(Br)c1OC(=O)c1ccccc1[N+](=O)[O-])c1ccccc1` here?
The Potency was inconclusive [activator, single point].

Which Potency does the source give for `COc1ccc(C(=O)O/N=C(\N)c2ccccc2)cc1OC` here?
The Potency was inconclusive [activator, single point].

For `S=C(NCCc1ccccc1)N/N=C/c1c(Cl)cccc1Cl`, which Potency is on record?
Its Potency is “inactive”.

For `CN1CCCN(C(=O)/C=C/c2ccc(Cl)cc2Cl)CC1`, which Potency is on record?
The Potency was inconclusive [activator, full curve].

With `O=C(NCCCn1ccnc1)c1ccc(N2CCCCCC2)c([N+](=O)[O-])c1` as the molecule, how does the Potency read?
Its Potency is “inactive”.

With `Cc1ccsc1C(=O)NC1CCCCC1C` (centres undefined) as the molecule, how does the Potency read?
The Potency was inconclusive [activator, single point].

For `CC(C)(C)c1cc(=O)n2c(nc3ccccc32)[nH]1`, which Potency is on record?
Its Potency is inconclusive [activator, partial curve, poor fit].

For `COc1ccccc1N1CCN(CC(O)COc2ccc3c(C)cc(=O)oc3c2)CC1` (centres undefined), which Potency is on record?
The Potency was “inactive”.

With `COc1cc(OC)cc(-c2cc3ccc(F)cc3cn2)c1` as the molecule, how does the Potency read?
The Potency was inconclusive [activator, partial curve, poor fit].

With `Cc1csc(SCC(=O)Nc2sc3c(c2C#N)CCC3)n1` as the molecule, how does the Potency read?
The Potency was inconclusive [activator, partial curve, poor fit].

With `CCCCCCCNC1=CC(=O)CC(c2ccccc2)C1` (centres undefined) as the molecule, how does the Potency read?
Its Potency is inconclusive [activator, single point].

For `CCC1CCCCN1C(=O)COC(=O)c1cc2ccccc2cc1O` (centres undefined), which Potency is on record?
The Potency was inconclusive [activator, full curve, poor fit].

Which Potency does the source give for `Cc1cc(Cl)ccc1OCC(=O)NNC(=O)c1cccnc1` here?
Its Potency is “inactive”.

For `O=C(Oc1ccc(Cl)c2cccnc12)N1CCOCC1`, which Potency is on record?
Its Potency is inconclusive [activator, single point].

Which Potency does the source give for `CCc1ccc(Nc2nnc(SCC(=O)N(C)CC(=O)Nc3ccccc3CC)s2)cc1` here?
The Potency was inconclusive [activator, partial curve, poor fit].

For `O=C(NCC1CCCO1)c1cc(-c2ccccc2F)no1` (centres undefined), which Potency is on record?
Its Potency is inconclusive [activator, partial curve, poor fit].

Which Potency does the source give for `Cn1c(COc2ccc(Cl)cc2)nc2ccccc2c1=O` here?
Its Potency is inconclusive [activator, partial curve, poor fit].

For `CC(C)(C)C(=O)NC(=S)NNC(=O)c1sc2ccccc2c1Cl`, which Potency is on record?
Its Potency is inconclusive [activator, partial curve, poor fit].

For `O=C(O)c1ccc(NC(=S)NC(=O)C(c2ccccc2)c2ccccc2)cc1`, which Potency is on record?
Its Potency is “inactive”.

For `Cc1ccc(C(=O)CC(=O)COc2ccc(Cl)cc2)cc1`, which Potency is on record?
Its Potency is inconclusive [activator, partial curve, poor fit].

With `CCOC(=O)c1c(C)nc(C)c(C(=O)OCC)c1-c1cccc(N)c1` as the molecule, how does the Potency read?
Its Potency is “inactive”.

With `O=C1C=C(c2ccccc2C(F)(F)F)C[C@@H](c2ccc3c(c2)OCO3)C1` as the molecule, how does the Potency read?
Its Potency is “inactive”.

For `O=[N+]([O-])c1ccc(NCc2ccccn2)nc1`, which Potency is on record?
The Potency was inconclusive [activator, partial curve, poor fit].

Which Potency does the source give for `CCC(CC)c1nnc(NC(=O)c2c(C)nn(Cc3ccccc3Cl)c2C)s1` here?
The Potency was inconclusive [activator, partial curve, poor fit].

With `CSc1nc2ccc(NC(=O)c3cc4ccccc4o3)cc2s1` as the molecule, how does the Potency read?
The Potency was inconclusive [activator, partial curve, poor fit].

With `CCN(Cc1ccccc1)C(=O)CSc1ccccc1C(=O)O` as the molecule, how does the Potency read?
The Potency was “inactive”.

With `Cc1nc2ccc(C(=O)N/N=C/c3ccccc3O)cc2[nH]1` as the molecule, how does the Potency read?
The Potency was inconclusive [activator, partial curve].

With `COc1ccc(-c2ccc(-c3noc(-c4ccccc4)n3)c(OC)n2)cc1` as the molecule, how does the Potency read?
The Potency was “inactive”.

Which Potency does the source give for `O=C(N/N=C/c1ccc(OC(=O)c2ccccc2Cl)cc1)c1ccccn1` here?
Its Potency is inconclusive [activator, partial curve, poor fit].

With `Cc1ccc(NCc2nc3ccccc3n2C)cc1C` as the molecule, how does the Potency read?
Its Potency is inconclusive [activator, partial curve, poor fit].

For `O=C(N=C1c2ccccc2CN1c1ccc(F)cc1)c1ccc(Cl)nc1`, which Potency is on record?
The Potency was inconclusive [activator, single point].

Which Potency does the source give for `CCn1c(C)nc2cc(C(=O)NN=C(C)c3ccc(C#N)cc3)ccc21` here?
The Potency was “inactive”.

Which Potency does the source give for `COC(=O)CSc1nc2c(c(=O)n(C)c(=O)n2C)n1CCC(C)C` here?
Its Potency is inconclusive [activator, single point].

For `CCCN1C=CC(=C/C=C(\C#N)C(=O)OCC)C=C1`, which Potency is on record?
The Potency was inconclusive [activator, full curve, poor fit].

For `Cc1cc(C(F)(F)F)nn1CC(=O)Nc1cccnc1`, which Potency is on record?
Its Potency is “inactive”.

For `Cc1nn2cc(-c3ccc(Cl)cc3)nc2s1`, which Potency is on record?
The Potency was inconclusive [activator, partial curve, poor fit].

For `CC(C#N)OC(=O)c1cccnc1SCC(=O)Nc1ccc2c(c1)OCO2` (centres undefined), which Potency is on record?
Its Potency is inconclusive [activator, partial curve, poor fit].
